# Reference: article PMC4336329 (PLoS ONE, 2015)
# In all, about 310,000 compounds went through this assay and about 14,000 (4.5%) showed an effect of 50% or more. The effect is printed as a negative number. Some of the results follow.
# Biological target: human ether-à-go-go-related gene (hERG) potassium channel (human, UniProt Q12809)
# Test: primary screen, population patch clamp on CHO cells stably expressing hERG
# 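Further: peak tail current of the secondary pulse compared with the same well before compound.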
# Chain of human ether-à-go-go-related gene (hERG) potassium channel (Q12809 whole entry, looked up): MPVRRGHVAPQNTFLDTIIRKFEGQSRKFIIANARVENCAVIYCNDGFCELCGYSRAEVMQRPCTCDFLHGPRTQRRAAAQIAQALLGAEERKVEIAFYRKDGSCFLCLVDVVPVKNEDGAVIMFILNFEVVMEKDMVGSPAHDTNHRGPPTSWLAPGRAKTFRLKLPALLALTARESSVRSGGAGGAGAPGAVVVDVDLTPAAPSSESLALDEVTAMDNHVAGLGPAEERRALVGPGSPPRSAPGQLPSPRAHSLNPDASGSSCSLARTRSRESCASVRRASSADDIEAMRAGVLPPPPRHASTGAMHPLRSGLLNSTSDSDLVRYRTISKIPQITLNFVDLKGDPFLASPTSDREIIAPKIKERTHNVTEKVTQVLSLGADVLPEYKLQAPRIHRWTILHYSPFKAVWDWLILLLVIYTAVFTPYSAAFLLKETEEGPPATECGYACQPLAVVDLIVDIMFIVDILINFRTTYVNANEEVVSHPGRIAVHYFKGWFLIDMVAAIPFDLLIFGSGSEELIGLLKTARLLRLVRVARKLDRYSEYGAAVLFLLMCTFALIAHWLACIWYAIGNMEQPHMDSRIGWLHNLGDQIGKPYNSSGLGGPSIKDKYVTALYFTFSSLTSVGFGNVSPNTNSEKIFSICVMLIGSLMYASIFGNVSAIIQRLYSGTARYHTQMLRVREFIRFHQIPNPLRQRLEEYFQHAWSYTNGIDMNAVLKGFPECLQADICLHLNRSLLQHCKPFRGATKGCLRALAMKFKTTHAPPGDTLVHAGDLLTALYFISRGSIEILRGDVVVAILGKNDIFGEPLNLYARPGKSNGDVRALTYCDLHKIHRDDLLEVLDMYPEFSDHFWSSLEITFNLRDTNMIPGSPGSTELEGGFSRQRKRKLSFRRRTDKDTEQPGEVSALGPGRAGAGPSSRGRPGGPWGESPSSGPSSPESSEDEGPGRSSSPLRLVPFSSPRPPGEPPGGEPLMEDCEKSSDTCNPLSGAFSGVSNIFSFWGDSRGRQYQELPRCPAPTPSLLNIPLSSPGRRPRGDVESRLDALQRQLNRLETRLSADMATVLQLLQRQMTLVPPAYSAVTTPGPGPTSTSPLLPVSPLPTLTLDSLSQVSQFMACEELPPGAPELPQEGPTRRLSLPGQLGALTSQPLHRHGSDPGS
row,SMILES,"hERG current change (%, negative = inhibition) at 10uM [%]"
1,CCOc1ccc(NC(=O)c2ccc(CC)s2)c([N+](=O)[O-])c1,33.4
2,Cc1cc(C)cc(NC(=O)CCCN2C(=O)C(c3ccccc3)Oc3cccnc32)c1 (stereo not drawn),-1.03
3,COC(=O)c1cc(CN2CCN(c3ccccc3C)CC2)ccc1O.Cl,-16.4
4,N=C1/C(=C\c2ccc(SCc3ccccc3)o2)C(=O)N=C2SC=NN12,29.2
5,Oc1c(-c2cc(-c3ccco3)[nH]n2)ccc2ccccc12,13.7
6,O=C(N/N=C/c1ccco1)c1cnccn1,7.7
7,O=C(Nc1ccccn1)c1nc(-c2ccccc2)n(-c2ccccc2)n1,-4.87
8,c1ccc(SCc2nc(-c3ccccn3)no2)cc1,-7
9,O=C(C1CCCN(Cc2ccc3c(c2)OCO3)C1)N1CCCC1.O=C(O)C(=O)O (stereo not drawn),9.26
10,CCOC(=O)c1cc(C(=O)c2ccccc2O)cn2c(=O)c3c(C)c(C)sc3nc12,18.7
11,C=C[C@@]1(C)CC(=O)[C@]2(O)[C@@]3(C)[C@@H](O)CCC(C)(C)[C@@H]3[C@H](O)[C@H](OC(C)=O)[C@@]2(C)O1,0.151
12,Cc1cc(NC(=O)COC(=O)C2CC(=O)N(c3cccc(C)c3C)C2)no1 (stereo not drawn),5.71
13,CCOc1ccc2[nH]c(SCC(=O)OC)c([N+](=O)[O-])c2c1,5.34
14,COC(=O)NNC(=O)C1CCC(C)CC1 (stereo not drawn),-27.2
15,CCOc1cc(/C=N\NC(=O)CN2CCOCC2)ccc1OCc1ccc(F)cc1,-18.2
16,Cc1ccc(C2CN(C)C3(C(=O)Nc4ccccc43)C23COc2ccccc2C3=O)cc1 (stereo not drawn),1.58
17,CCNc1nc(NCC)n2c(SCc3ccc(F)cc3)nnc2n1,-20.1
18,O=C(Nc1ccc2c(c1)nc1n2CCN(Cc2ccccc2)C1)NC1CCCCC1,-9.72
19,COCCn1c(-c2ccc(NC(C)=O)cc2)nc2c1c(=O)[nH]c(=O)n2CC(C)C,13.1
20,CCCCNC(=O)c1c(N)n(CCCOC)c2nc3ccccc3nc12,-9.6
21,CCC(=O)Nc1ccc2c(c1)nc1n2CCN(CCOC)C1,9.21
22,O=C(Cc1ccc(Br)cc1)N1CCN(C(=O)c2ccccc2)CC1,-30.1
23,CCOC(=O)c1ccc(NC(=O)Cn2ccc([N+](=O)[O-])n2)cc1,-46.4
24,COCC(=O)Nc1ncc(S(=O)(=O)c2ccc([N+](=O)[O-])cc2)s1,-12.8
25,O=[N+]([O-])c1ccc(Cl)cc1CN1CCCCCC1,-3.36
26,N#Cc1ccc(CN2CCN(C(=O)CCNS(=O)(=O)c3ccc(F)c(F)c3)CC2)cc1,-49.5
27,O=C(O)c1ccc(N/N=C/C2=C(N3CCOCC3)C(=C\c3ccccc3)/CC2)cc1,7.96

row,SMILES,"hERG current change (%, negative = inhibition) at 10uM [%]"
1,Cn1c(CNC(=O)CNS(=O)(=O)c2ccc(F)cc2F)cc(=O)n(C)c1=O,19.6
2,Cc1ccc(-c2nc(C3CCN(S(=O)(=O)c4ccc(C(C)(C)C)cc4)CC3)no2)cc1,17.4
3,COc1ccc(NC(=O)C2CCCN(c3nn4c(=O)cc(C)nc4s3)C2)c(OC)c1 (stereo not drawn),9.44
4,CCOc1cccc(-c2nnc3n2N=C(c2cc(OC)ccc2OC)CS3)c1,-5.56
5,CCC(=O)Oc1ccc2c(C)cc(=O)oc2c1C,0.0333
6,Cn1c(=O)c2c(nc(NCCOc3ccc(F)cc3)n2C)n(C)c1=O,-26
7,CN1CCN(C(=O)c2cn(-c3ccccc3)nc2-c2cccs2)CC1,-12.2
8,O=S(=O)([O-])c1cc(OS(=O)(=O)c2ccccc2)cc2ccccc12.[Na+],18.8
9,Cc1cccc(NC(=O)CSc2nnc(C3CC3)n2CC2CCCO2)c1 (stereo not drawn),-14.9
10,N#Cc1c(NC(=O)CSc2nc3c(c(C(F)(F)F)n2)CCc2ccccc2-3)sc2c1CCCC2,3.05
11,CCOC(=O)N1CCC(NCCNC(=O)c2ccco2)CC1.O=C(O)C(=O)O,15.5
12,COc1cc(NC(=O)Nc2ccccc2OC)c(OC)cc1NC(=O)CN1CCCCC1,1.04
13,CCn1ccnc1CN(C)Cc1nc(-c2ccc(C(=O)OC)cc2)no1,-17.5
14,Cc1cc2c(cc1S(=O)(=O)Nc1cccc(F)c1C)NC(=O)CO2,4.24
15,O=C1/C(=C/c2cccnc2)SC(=S)N1c1ccccc1,13
16,COc1ccccc1NC(=S)N(CCN1CCOCC1)Cc1ccccc1F,3.98
17,COc1ccc(C(C(=O)NC2CCCC2)N(C(=O)c2ccoc2C)c2ccc(C)cc2)cc1 (stereo not drawn),-11.4
18,Cc1cc(Cl)ccc1OCC(=O)NNC(=O)c1cccnc1,3.32
19,O=Cc1ccc(N2CCCC2)o1,9.3
20,COc1cccc(NC(=O)Cn2cnc3sc(C)c(S(=O)(=O)N4CCCCC4)c3c2=O)c1,6.59
21,Cc1nc2cc(-c3ccccc3)nn2c(C)c1CCC(=O)N1CCN(c2ccccc2)CC1,-65.7
22,O=C(NNS(=O)(=O)c1ccc(Cl)cc1)c1ccc(S(=O)(=O)N2CCCCC2)cc1,13.8
23,COc1ccc(N=Cc2c(O)n(C)c(=O)[nH]c2=O)cc1,16.5
24,COc1ccc(N2CC(C(=O)NCCS(=O)(=O)N3CCN(c4ccccc4)CC3)CC2=O)cc1 (stereo not drawn),15.6
25,CCc1ccc2oc(-c3cccc(NC(=O)c4cccnc4)c3)nc2c1,4.45
26,CC(C)(C)NC(=O)N1CCCC(C(=O)c2cccc(Cl)c2)C1 (stereo not drawn),1.94
27,CC1=NN(C(=O)Cc2ccccc2)C(O)(c2cccnc2)C1 (stereo not drawn),-5.05
